Results: publication PMC4336329 (PLoS ONE, 2015)
Among all 310,000 compounds or so, about 2,200 (0.71%) showed an effect of 50% or more. Effects have a minus sign here. The list shows a part of the results.

These molecules were tested against human ether-à-go-go-related gene (hERG) potassium channel (human, UniProt Q12809) (assay: primary screen, population patch clamp on CHO cells stably expressing hERG).
Chain of human ether-à-go-go-related gene (hERG) potassium channel (Q12809 whole entry, looked up): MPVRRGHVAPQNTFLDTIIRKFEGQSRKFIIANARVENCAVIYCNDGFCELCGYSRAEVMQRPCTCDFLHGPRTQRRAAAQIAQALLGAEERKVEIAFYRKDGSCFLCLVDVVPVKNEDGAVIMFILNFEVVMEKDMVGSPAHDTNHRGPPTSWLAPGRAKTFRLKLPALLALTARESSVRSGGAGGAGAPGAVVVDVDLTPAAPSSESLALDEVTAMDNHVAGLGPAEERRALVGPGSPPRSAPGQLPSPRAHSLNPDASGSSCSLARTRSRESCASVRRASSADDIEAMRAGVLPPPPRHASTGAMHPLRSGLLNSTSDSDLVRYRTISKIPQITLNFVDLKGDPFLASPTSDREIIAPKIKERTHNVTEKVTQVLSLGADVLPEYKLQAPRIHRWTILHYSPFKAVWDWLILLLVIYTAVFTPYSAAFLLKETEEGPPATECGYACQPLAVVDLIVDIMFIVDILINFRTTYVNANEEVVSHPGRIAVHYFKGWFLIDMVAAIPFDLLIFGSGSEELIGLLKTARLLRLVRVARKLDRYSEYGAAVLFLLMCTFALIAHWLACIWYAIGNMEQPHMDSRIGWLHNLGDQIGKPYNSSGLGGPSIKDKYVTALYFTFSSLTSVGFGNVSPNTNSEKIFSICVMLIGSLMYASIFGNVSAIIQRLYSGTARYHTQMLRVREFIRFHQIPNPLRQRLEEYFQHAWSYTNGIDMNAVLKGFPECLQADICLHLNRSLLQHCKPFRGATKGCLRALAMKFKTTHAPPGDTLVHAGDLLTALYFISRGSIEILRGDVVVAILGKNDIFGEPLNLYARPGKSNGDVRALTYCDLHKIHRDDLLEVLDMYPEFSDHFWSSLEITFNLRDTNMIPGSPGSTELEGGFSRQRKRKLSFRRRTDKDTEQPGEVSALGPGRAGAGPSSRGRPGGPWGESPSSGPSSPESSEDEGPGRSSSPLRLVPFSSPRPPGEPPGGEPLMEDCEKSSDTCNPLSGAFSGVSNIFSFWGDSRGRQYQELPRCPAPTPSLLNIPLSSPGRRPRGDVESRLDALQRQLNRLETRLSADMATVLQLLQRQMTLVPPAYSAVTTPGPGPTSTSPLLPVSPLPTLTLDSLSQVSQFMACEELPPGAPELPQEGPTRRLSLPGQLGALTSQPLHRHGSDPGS

Compared with `Cc1ccccc1-n1ncc2c1CC(C)(C)CC2NC(=O)CN1CCCC1=O` (centres unmarked), `Cc1c([N+](=O)[O-])c([N+](=O)[O-])nn1CC(=O)NCCc1ccccc1` is higher in “hERG current change (%, negative = inhibition) at 1uM” value: 16.4% for the first, 21.1% for the second.

Compared with `CCOC(=O)Cc1csc2nc(-c3ccccc3)nn12`, `CCOC(=O)c1[nH]c2ccccc2c1NC(=O)c1ccco1` is lower in “hERG current change (%, negative = inhibition) at 1uM” value: 14.1% for the first, 7.86% for the second.

Compared with `Clc1ccc(/C(Cc2nc3ccccc3[nH]2)=N\Nc2ccccc2)cc1`, `O=C(c1ccc(CN2CCc3ccccc3C2)cc1)N1CCN(c2ccccc2)CC1` is lower in “hERG current change (%, negative = inhibition) at 1uM” value: 10.5% for the first, 8.46% for the second.

Compared with `c1ccc(-c2cccc(-c3ccccn3)n2)nc1`, `S=c1[nH]nc(-c2ccccn2)n1/N=C/c1ccccc1` is higher in “hERG current change (%, negative = inhibition) at 1uM” value: 2.37% for the first, 8.65% for the second.

First: Cc1nnc(NC(=O)CSc2nnc(-c3ccoc3C)n2CC(C)C)s1
Second: CCCn1nnnc1SCC(=O)Nc1nnc(CC)s1
The “hERG current change (%, negative = inhibition) at 1uM” value of the first is lower: 10.4% for the first, 14.3% for the second.

First: CC(C)C1N(C(=O)N2CCOCC2)CCN1S(=O)(=O)c1ccccc1 (centres unmarked)
Second: COc1ccc(S(=O)(=O)N2CCOCC2)cc1C(=O)NC1CCCCC1
The “hERG current change (%, negative = inhibition) at 1uM” value of the first is higher: 18.7% for the first, 4.36% for the second.

Compared with `O=C(c1cnn2c(C(F)(F)F)cc(-c3ccc4c(c3)OCO4)nc12)N1CCCCC1`, `CCn1c(=O)c(=O)[nH]c2cc(C(=O)N3CCN(Cc4ccc5c(c4)OCO5)CC3)ccc21` is lower in “hERG current change (%, negative = inhibition) at 1uM” value: 8.69% for the first, 7.63% for the second.

Going from `O=[N+]([O-])C(=C1NCCN1)C(Cl)=C(Cl)Cl` to `COc1ccc(NC(=O)/C=C/C(=O)O)c([N+](=O)[O-])c1`, the “hERG current change (%, negative = inhibition) at 1uM” value falls from 11.6% to 6.56%.

Compared with `CCNc1nc(OCCNC(C)=O)nc(N(C)C)n1`, `CCCOc1ccc(CNC(=O)C2CCN(c3nn4c(=O)cc(C)nc4s3)CC2)cc1` is lower in “hERG current change (%, negative = inhibition) at 1uM” value: 20.8% for the first, 6.43% for the second.

Going from `CCCCOc1ccc(C(O)C(CN2CCOCC2)c2ccccc2)cc1.Cl` (centres unmarked) to `O=C(Oc1ccc(-c2ccccc2)cc1)N1CCCCC1`, the “hERG current change (%, negative = inhibition) at 1uM” value falls from 4.27% to 2.42%.

Going from `O=C(NCC(c1ccco1)N1CCc2ccccc2C1)C(=O)Nc1ccccc1` (centres unmarked) to `C=CCNC(=O)c1ccccc1NC(=O)c1ccccc1SC`, the “hERG current change (%, negative = inhibition) at 1uM” value falls from 12.3% to 4.19%.

Going from `COc1cc(OC)c(NC(=O)Cc2ccc(OC)c(S(=O)(=O)N3CCOCC3)c2)cc1Cl` to `CCN(CC)S(=O)(=O)c1ccc(N2CCOCC2)c(NC(=O)c2cc([N+](=O)[O-])ccc2Cl)c1`, the “hERG current change (%, negative = inhibition) at 1uM” value falls from 5.73% to 4.44%.

Going from `COC(=O)c1c([N+](=O)[O-])c(OC)c(OC)c(OC)c1[N+](=O)[O-]` to `COc1ccc(CCNC(=O)c2ccc3c(c2)NC(=O)C(CSCc2cc(C)ccc2C)N3)cc1OC` (centres unmarked), the “hERG current change (%, negative = inhibition) at 1uM” value rises from 0.055% to 11%.

First: NS(=O)(=O)c1cccc(NC(=O)CN2CCC(Cc3ccccc3)CC2)c1
Second: CCNC(=S)N1CCC(Cc2ccccc2)CC1
The “hERG current change (%, negative = inhibition) at 1uM” value of the first is higher: 12.6% for the first, 8.21% for the second.

First: COc1cc(/C=N\Nc2nncn2N)ccc1OC(C)=O.Cl
Second: CSc1ccc(/C=N\NC(=O)COc2ccc(Cl)cc2Br)cc1
The “hERG current change (%, negative = inhibition) at 1uM” value of the first is higher: 15.3% for the first, 7.48% for the second.

Going from `CCCCNC(=O)c1ccc(NS(=O)(=O)c2ccc3[nH]c(=O)[nH]c3c2)cc1` to `O=C(Nc1ccc(Br)cc1)c1cccc(S(=O)(=O)Nc2ccccn2)c1`, the “hERG current change (%, negative = inhibition) at 1uM” value rises from 4.85% to 16.9%.

Going from `S=c1[nH]nc(-c2ccc3ccccc3n2)n1-c1ccc2ncccc2c1` to `c1ccc2c(c1)ncn2-c1ccc(-c2ccnc3ncnn23)cc1`, the “hERG current change (%, negative = inhibition) at 1uM” value falls from 15.4% to -18.7%.

First: COCCN(C(=O)c1cccc(OC)c1)c1nnc(-c2ccncc2)s1
Second: CCc1ccccc1NC(=O)c1cc(-c2ccc(OC)cc2)on1
The “hERG current change (%, negative = inhibition) at 1uM” value of the first is lower: 1.99% for the first, 14.3% for the second.

Going from `C[C@]12C=CC(=O)C=C1CC[C@@H]1C2=CC[C@]2(C)[C@@H](C(=O)CN3CCN(c4cc(N5CCCC5)nc(N5CCCC5)n4)CC3)CC[C@@H]12.O=C(O)/C=C\C(=O)O` to `CC1CCCN(S(=O)(=O)c2ccc(NC(=O)CN3CCCCC3)cc2)C1` (centres unmarked), the “hERG current change (%, negative = inhibition) at 1uM” value falls from 12.4% to -24.9%.

Compared with `CCCCCCO`, `CCCCOCCOCCOCCCC` is lower in “hERG current change (%, negative = inhibition) at 1uM” value: 21.9% for the first, 8.37% for the second.

Going from `CCOC(=O)c1c(NC(=O)CSc2c[nH]c3ccccc23)sc2c1CCCC2` to `Cc1ccccc1N(C)S(=O)(=O)c1ccc2[nH]cc(C(=O)NCC3CCCO3)c(=O)c2c1` (centres unmarked), the “hERG current change (%, negative = inhibition) at 1uM” value falls from 16.6% to 6.03%.

Going from `O=S(=O)(NC1CCCC1)c1ccc(Br)s1` to `CC(=O)Nc1ccc(S(=O)(=O)N(C)CC(=O)OC2CCCCC2=O)cc1` (centres unmarked), the “hERG current change (%, negative = inhibition) at 1uM” value falls from 11.5% to 4.14%.

Going from `Cc1cc(C(=O)CS(=O)(=O)c2ccc(Cl)cc2)cc(C)c1O` to `Cc1cc(C)cc(NS(=O)(=O)c2ccc(F)cc2)c1`, the “hERG current change (%, negative = inhibition) at 1uM” value falls from 21.3% to 8.52%.

Compared with `Cc1ccc(CNC(=O)C(=O)NCC2OCCN2C(=O)c2ccc(Cl)cc2)cc1` (centres unmarked), `CCOc1ccccc1C(=O)NCC(=O)NCc1ccc(S(=O)(=O)N2CCOCC2)cc1` is lower in “hERG current change (%, negative = inhibition) at 1uM” value: 14.4% for the first, 2.85% for the second.

Going from `CCc1nnc(NC(=O)NCN2C(=O)C3C4C=CC(C4)C3C2=O)s1` (centres unmarked) to `CCNC(=O)c1ccc(NC(=O)CC2SC(N3CCCC3)=NC2=O)cc1` (centres unmarked), the “hERG current change (%, negative = inhibition) at 1uM” value rises from 8.25% to 22.7%.

First: C[n+]1cccc(C(=O)N/N=C/c2ccc3c(c2)OCO3)c1.[I-]
Second: O=C(CSc1n[nH]c(-c2cccs2)n1)NCc1ccc2c(c1)OCO2
The “hERG current change (%, negative = inhibition) at 1uM” value of the first is higher: 14.6% for the first, -0.326% for the second.

Compared with `Nc1nc(COc2ccc(Cl)cc2)cs1`, `CNC(=O)c1nnc(Cc2ccc(Cl)cc2)o1` is higher in “hERG current change (%, negative = inhibition) at 1uM” value: 5.28% for the first, 9.49% for the second.

Compared with `O=C(CSc1nc2ccccc2c(=O)[nH]1)N1CCN(c2ccccc2F)CC1`, `CC(=O)c1cc(-c2ccccc2)[nH]c1N1CCCC1` is lower in “hERG current change (%, negative = inhibition) at 1uM” value: 12.1% for the first, 6.44% for the second.

Going from `Cc1noc(C(=O)Nc2cc(Cl)ccc2O)c1Cl` to `Cc1nn(Cc2c(Cl)cccc2Cl)c(C)c1NC(=O)c1cc(C(C)C)on1`, the “hERG current change (%, negative = inhibition) at 1uM” value falls from 25.7% to 13.4%.

Going from `COc1ccccc1Oc1c(C)oc2c(CN3CCN(CCO)CC3)c(O)ccc2c1=O` to `COc1cc(CC2COC(=O)C2(O)Cc2ccc(O)c(OC)c2)ccc1O` (centres unmarked), the “hERG current change (%, negative = inhibition) at 1uM” value falls from 15.1% to 6.78%.

First: O=C(Cc1c(F)cccc1Cl)Nc1ccc(S(=O)(=O)Nc2nccs2)cc1
Second: COc1c(C(=O)Nc2nccs2)ccc2ccccc12
The “hERG current change (%, negative = inhibition) at 1uM” value of the first is lower: 6.72% for the first, 12.6% for the second.

Going from `Cc1ccc(NC(=O)c2nc[nH]c2C(=O)N(C)Cc2ccccc2)cc1` to `Cc1ccc(S(=O)(=O)N(C)Cc2cc3ccccc3[nH]c2=O)cc1`, the “hERG current change (%, negative = inhibition) at 1uM” value falls from 5.93% to -14.8%.

Going from `CCOC(=O)/C(C#N)=C(C)/C=C1\Sc2ccccc2N1CC` to `CCC1Oc2ccc(C)cc2N(CC(=O)NCc2cccs2)C1=O` (centres unmarked), the “hERG current change (%, negative = inhibition) at 1uM” value falls from 4.77% to 3.74%.

First: CC1Oc2ccccc2C=C1/C=N/NC(=O)[C@@H](C)NC(=O)OC(C)(C)C (some centres unmarked)
Second: CC(C)(C)c1ccc(C(=O)NC(=S)NCc2ccco2)cc1
The “hERG current change (%, negative = inhibition) at 1uM” value of the first is lower: 3.34% for the first, 12% for the second.

First: Cc1nc2ccccn2c1-c1nnco1
Second: Cc1ccc(Nc2nc(N)c3ccccc3n2)cc1C.Cl
The “hERG current change (%, negative = inhibition) at 1uM” value of the first is lower: 2.15% for the first, 9.42% for the second.

Going from `CC(C)C(NC(=O)c1ccccc1NC(=O)c1ccccc1)C(=O)NNC(=O)c1ccncc1` (centres unmarked) to `O=C(CC(Nc1cccc(Cl)c1Cl)C(=O)OCC(=O)c1cccs1)c1ccccc1` (centres unmarked), the “hERG current change (%, negative = inhibition) at 1uM” value falls from 16.3% to 7.37%.

Going from `Cc1cccc2c(CC(=O)O)noc12` to `CN=C1SC(CC(=O)Nc2ccccc2F)C(=O)N1C` (centres unmarked), the “hERG current change (%, negative = inhibition) at 1uM” value rises from 0.409% to 16.2%.

First: CN1CCc2c(sc3c2c(=O)n(-c2ccccc2)c2nncn32)C1
Second: COc1ccc(CCNC(=O)CCn2c(=O)c3cccn3c3cccnc32)cc1OC
The “hERG current change (%, negative = inhibition) at 1uM” value of the first is higher: 7.37% for the first, -0.859% for the second.

Compared with `O=C(N/N=C/c1cc(Br)c(O)c(Br)c1)C1CC1`, `O=C(NCc1ccc(-c2csnn2)cc1)C1CC1` is higher in “hERG current change (%, negative = inhibition) at 1uM” value: 7.8% for the first, 10.1% for the second.

Going from `CCC(C)(C)NC(=O)CN(Cc1ccc(F)cc1)C(=O)CCC(=O)Nc1ccccn1` to `COC(=O)C1=C(c2ccc3ccccc3c2)C[C@@H]2CC[C@H]1N2C(=O)NCc1ccc(C(F)(F)F)cc1`, the “hERG current change (%, negative = inhibition) at 1uM” value rises from 1.36% to 12.3%.

First: O=C(Cc1ccccc1)NC1(O)C(=O)c2ccccc2C1=O
Second: CSc1ccccc1C(=O)Nc1cc([N+](=O)[O-])ccc1C
The “hERG current change (%, negative = inhibition) at 1uM” value of the first is higher: 10.5% for the first, 2.38% for the second.

Compared with `Cc1ccc(S(=O)(=O)N(C)CC(=O)N2CCN(Cc3ccc4c(c3)OCO4)CC2)cc1`, `COc1ccc(CNC(=O)Nc2ccc3c(c2)N(C)C(=O)CS3)cc1` is higher in “hERG current change (%, negative = inhibition) at 1uM” value: -40.2% for the first, 8.56% for the second.

Compared with `CC(C)C(=O)N1N=C(c2ccc(NS(C)(=O)=O)cc2)CC1c1cccs1` (centres unmarked), `COc1ccc(-c2csc(NC(=O)C(CC(=O)O)N3CCOCC3)n2)cc1` (centres unmarked) is higher in “hERG current change (%, negative = inhibition) at 1uM” value: -24.6% for the first, 11.4% for the second.

First: CC(C)Oc1ccc(CC2(CCc3ccncc3)C(=O)NC(=O)NC2=O)cc1
Second: COc1ccc(-c2cn[nH]c2-c2ccc(OCC(=O)NN)cc2O)cc1
The “hERG current change (%, negative = inhibition) at 1uM” value of the first is lower: 12.1% for the first, 12.9% for the second.

For `C/C(=N\Nc1cc(Cl)nc(C)n1)c1ccc(Cl)c(Cl)c1`, the “hERG current change (%, negative = inhibition) at 1uM” value was 6.97%.
